The results in this text go back to patent publication US20260216175A1, “COMPLEMENT INHIBITION” (Apellis Pharmaceuticals, Inc., priority 2023, published 2026).

This experiment concerns the target C3 convertase (CVF:Bb) (Homo sapiens, UniProt P00751). Nature of the experiment: biochemical.

Molecules are shown by their SMILES.

For the molecule `COc1cc(C)c2[nH]ccc2c1CN1CCN(C)CC[C@H]1c1ccc(C(=O)O)c(N)c1`, inhibition was half-maximal at 0.691 µM (IC50).
The result for `COc1cc(C)c2[nH]ccc2c1CN1CCN(CCC(F)(F)F)C[C@H]1c1ccc(C(=O)O)c(N)c1` reads 0.0125 µM.
In turn, `COc1cc(C)c2[nH]ccc2c1CN1CCCN(CC(F)(F)F)CC1c1ccc(C(=O)O)cc1` (stereo not shown) displayed a concentration for half-maximal inhibition (IC50) of 0.0532 µM. Compared with the last molecule, the IC50 is about 4.3-fold higher.
The result for `COc1cc(C)c2[nH]ccc2c1CN1CC(C)N(C)C[C@H]1c1ccc(C(=O)O)cc1` (stereo partly shown) reads 1.76 µM.
As to `COc1cc(C)c2[nH]ccc2c1CN1CCN(CC(F)F)C[C@H]1c1ccc(C(=O)O)c(NCC(F)(F)F)c1`, the IC50 is 1.09 µM.
In turn, `CNc1cc(C2CN(CC(F)F)CCN2Cc2c(OC)cc(C)c3[nH]ccc23)ccc1C(=O)O` (stereo not shown) registered an IC50 of 0.263 µM.
`COc1cc(C)c2[nH]ccc2c1CN1CCN(CC(F)F)C[C@H]1c1ccc(C(=O)O)c(N2CCCC2)c1` showed an IC50 of 0.81 µM.
Under `COc1cc(C)c2[nH]ccc2c1CN1CCN(C)CC1c1ccc(C(=O)O)c(C)c1` (stereo not shown) stands 1.16 µM; under `COc1cc(C)c2[nH]ccc2c1CN1CCN(C)C(=O)CC1c1ccc(C(=O)O)cc1` (stereo not shown), 34.2 µM.
Under `COc1cc(C)c2[nH]ccc2c1CN1CCN(CC(F)F)C[C@@H]1c1ccc(C(=O)O)c(N)n1` stands 20.4 µM; under `COc1cc(C)c2[nH]ccc2c1CN1C[C@@H]2CC(F)(F)CN2C[C@H]1c1ccc(C(=O)O)c(O)c1`, 25.2 µM; under `COc1cc(C)c2[nH]ccc2c1CN1CCN(CCC(F)(F)F)C[C@H]1c1ccc(C(=O)O)c(N)n1`, 0.249 µM.
For the molecule `COc1cc(C)c2[nH]ccc2c1CN1CCN(CC(F)F)C[C@H]1c1ccc(C(=O)O)c(NC(C)=O)c1`, the IC50 is 0.153 µM. This IC50 lies about 1.6-fold lower than the previous one.
The result for `COc1cc(C)c2[nH]ccc2c1CN1CCN(C)CC[C@@H]1c1ccc(C(=O)O)cc1` reads 3.01 µM.
Molecule `Cc1cc(OC(F)F)c(CN2CCN(CC(F)F)C[C@H]2c2ccc(C(=O)O)c(N)c2)c2cc[nH]c12` came in with an IC50 of 2.69 µM. This IC50 and that of the molecule before are within 1.5-fold of each other.
As to `COc1cc(C)c2[nH]ccc2c1CN1C[C@@H]2CCN2C[C@@H]1c1ccc(C(=O)O)cc1`, the IC50 came to 44.2 µM.
Turning to `COc1cc(C)c2[nH]ccc2c1CN1CCN(CC(F)F)C[C@H]1c1ccc(C(=O)O)c(NC2CCOCC2)c1`, half-maximal inhibition (IC50) required 0.157 µM.
The result for `COc1cc(C)c2[nH]ccc2c1CN1CCN(CC(F)F)C[C@@H]1c1ccc(C(=O)O)c(NC2CCOCC2)c1` reads 46.2 µM; that for `COc1cc(C)c2[nH]ccc2c1CN1CCN(C)C(C)CC1c1ccc(C(=O)O)cc1` (stereo not shown), 8.53 µM; that for `COc1cc(C)c2[nH]ccc2c1CN1CCCN(CC(F)(F)F)C[C@@H]1c1ccc(C(=O)O)cc1`, 0.973 µM.
In the case of `COc1cc(C)c2[nH]ccc2c1CN1CCN(CC(F)F)C[C@H]1c1ccc(C(=O)O)c(NC2CCC2)c1`, the IC50 was found to be 0.601 µM.
Under `COc1cc(C)c2[nH]ccc2c1CN1CCN(CCC(F)(F)F)C[C@@H]1c1ccc(C(=O)O)c(O)c1` stands 6.32 µM; under `COc1cc(C)c2[nH]ccc2c1CN1CCN(CC(F)F)C[C@H]1c1ccc(C(=O)O)c(C(F)F)c1`, 0.324 µM; under `COc1cc(C)c2[nH]ccc2c1CN1CC[C@H]2CCCN2CC1c1ccc(C(=O)O)cc1` (stereo partly shown), 2.37 µM.
For the molecule `COc1cc(C)c2[nH]ccc2c1CN1CCN(CC(F)F)CC1c1ccc(C(=O)O)c(O)c1` (stereo not shown), inhibition was half-maximal at 0.265 µM (IC50). Compared with the last molecule, the IC50 is about 8.9-fold lower.
Molecule `COc1cc(C)c2[nH]ccc2c1CN1CCN(CC(F)(F)F)CC1c1ccc(C(=O)O)c(O)c1` (stereo not shown) showed an IC50 of 0.385 µM.
Take `COc1cc(C)c2[nH]ccc2c1CN1C[C@H]2C[C@@H](F)CN2CC1c1ccc(C(=O)O)cc1` (stereo partly shown): the IC50 was found to be 6.97 µM.
For `COc1cc(C)c2[nH]ccc2c1CN1CCN(CC(F)F)C[C@H]1c1ccc(C(=O)O)c(Nc2cnn(C)c2)c1`, the IC50 is 0.531 µM.
Molecule `COc1cc(C)c2[nH]ccc2c1CN1CCN(CC(F)F)C[C@@H]1c1ccc(C(=O)O)c2c1CCCN2` yielded an IC50 of 15.1 µM.
`CCc1cc([C@@H]2CN(CC(F)F)CCN2Cc2c(OC)cc(C)c3[nH]ccc23)ccc1C(=O)O`: the IC50 came out at 47.9 µM.
`COc1cc(C)c2[nH]ccc2c1CN1CCN(CC(F)F)C[C@@H]1c1ccc(C(=O)O)c(NC2CC(F)(F)C2)c1` showed an IC50 of 29.9 µM. This IC50 lies about 1.6-fold lower than the previous one.
As for `COc1cc(C)c2[nH]ccc2c1CN1CCCN(C)CC1c1ccc(C(=O)O)cc1` (stereo not shown), the IC50 is 2.26 µM.
Under `COc1cc(C)c2[nH]ccc2c1CN1CCN(CC(F)F)C[C@H]1c1ccc(C(=O)O)c(NC2COC2)c1` stands 0.273 µM.
The result for `CCc1cc(C2CN(CC(F)F)CCN2Cc2c(OC)cc(C)c3[nH]ccc23)ccc1C(=O)O` (stereo not shown) reads 0.58 µM.
Consider `COc1cc(C)c2[nH]ccc2c1CN1CCN(CC(F)F)C[C@@H]1c1ccc(C(=O)O)c(O)n1`, for which the IC50 amounted to 20.1 µM. This IC50 is about 35-fold higher than that of the molecule before.
As to `COc1cc(C)c2[nH]ccc2c1CN1CCN(CC(F)F)C[C@@H]1c1ccc(C(=O)O)c(NC(C)=O)c1`, the IC50 was 13.2 µM.
As to `COc1cc(C)c2[nH]ccc2c1CN1CCN(CC(F)F)CC1c1ccc(C(=O)O)c(CO)c1` (stereo not shown), it took 0.283 µM to reach half-maximal inhibition (IC50).
`COc1cc(C)c2[nH]ccc2c1CN1CCN(CCC(F)(F)F)C[C@@H]1c1ccc(C(=O)O)c(N)n1`: the IC50 was 15.2 µM.
As for `COc1cc(C)c2[nH]ccc2c1CN1CCN(CC(F)F)C[C@@H]1c1ccc(C(=O)O)c(O)c1`, the IC50 is 4.2 µM. Compared with the last molecule, the IC50 is about 3.6-fold lower.
On to `COc1cc(C)c2[nH]ccc2c1CN1CCCN(CC(F)F)CC1c1ccc(C(=O)O)cc1` (stereo not shown), for which inhibition was half-maximal at 0.0831 µM (IC50).
The molecule `COc1cc(C)c2[nH]ccc2c1CN1C[C@H]2CCCCN2C[C@@H]1c1ccc(C(=O)O)cc1` showed an IC50 of 4.19 µM.
The molecule `COc1cc(C)c2[nH]ccc2c1CN1CCN(CC(F)F)C[C@@H]1c1ccc(C(=O)O)c(Nc2cnn(C)c2)c1` gave an IC50 of 9.24 µM.
For `COc1cc(C)c2[nH]ccc2c1CN1CCN(CCC(F)(F)F)C[C@H]1c1ccc(C(=O)O)c(NCC2CC2)c1`, half-maximal inhibition (IC50) was put at 0.461 µM.
On to `COc1cc(C)c2[nH]ccc2c1CN1C[C@H]2CCN2C[C@@H]1c1ccc(C(=O)O)cc1`, for which 28.1 µM corresponded to half-maximal inhibition (IC50).
Molecule `COc1cc(C)c2[nH]ccc2c1CN1CCN(CCC(F)(F)F)C[C@H]1c1ccc(C(=O)O)c(Cl)c1` had an IC50 of 0.645 µM. Compared with the last molecule, the IC50 is about 44-fold lower.
Regarding `COc1cc(C)c2[nH]ccc2c1CN1CCN(C)CC1c1ccc(C(N)=O)c(F)c1` (stereo not shown), half-maximal inhibition (IC50) required 2.33 µM.
`CNc1cc([C@@H]2CN3CCC[C@H]3CN2Cc2c(OC)cc(C)c3[nH]ccc23)ccc1C(=O)O` gave an IC50 of 1.53 µM.
As for `COc1cc(C)c2[nH]ccc2c1CN1CCCN(C)C(=O)C1c1ccc(C(=O)O)cc1` (stereo not shown), the IC50 turned out to be 6.15 µM.
Under `COc1cc(C)c2[nH]ccc2c1CN1CCN(CC(F)F)C[C@H]1c1cnc(C(=O)O)c(N)c1` stands 2.28 µM; under `COc1cc(C)c2[nH]ccc2c1CN1CCN(CC(F)F)C[C@H]1c1ccc(C(=O)O)c(N)n1`, 0.453 µM; under `COc1cc(C)c2[nH]ccc2c1CN1CCN(CC(F)F)C[C@@H]1c1ccc(C(=O)O)c2c1OCCN2`, 20.8 µM.
Under `COc1cc(C)c2[nH]ccc2c1CN1CCN(CC(F)F)CC1c1ccc(C(=O)O)c(N[C@H](C)C(F)(F)F)c1` (stereo partly shown) stands 1.16 µM.
The result for `COc1cc(C)c2[nH]ccc2c1CN1CCN(CC(F)F)C[C@@H]1c1ccc(C(=O)O)c(NCC(F)(F)F)c1` reads 77.6 µM.
`COc1cc(C)c2[nH]ccc2c1CN1C[C@@H]2C[C@H]3C[C@H]3N2C[C@@H]1c1ccc(C(=O)O)cc1`: the IC50 was 12 µM.
For the molecule `COc1cc([C@H]2CN(CC(F)F)CCN2Cc2c(OC)cc(C)c3[nH]ccc23)ccc1C(=O)O`, the IC50 was 7.02 µM.

As usually defined, the IC50 is the concentration that gives 50% inhibition.
